Out of some 270,000 compounds screened, about 620 (0.23%) were called active. Inconclusive means that the source gave no clear call. Such entries were picked first, then a sample of the others. Calls follow the shape of the dose curve; as a rule, active = well fitted inhibition curve with a large enough effect in the polarisation, with a control signal flat (not every such curve was filed as active); inconclusive = small, poorly fitted or top-dose-only effect, or effect the other way, or a change in a side signal; inactive = no such curve, though single readings can be large or run the other way; the % refers to the polarisation. Where the call is inconclusive, the potency comes from a doubtful curve fit. “Side channel” marks fits to a control or component signal instead of the main read-out.
Biological target: Menin (Homo sapiens) (UniProt O00255)
Assay: qHTS Assay for Inhibitors Targeting the Menin-MLL Interaction in MLL Related Leukemias: Competition With Texas Red Labeled MLL-derived Mutant Peptide; as to FP activity change, negative = inhibition: % of control where 0% means no effect
Conditions: fluorescence polarization; FP activity change, negative = inhibition: at 61.6 µM (top of the series)
Potency is read from the fitted curve at half-maximal effect; tags tell the direction and shape of the fitted curve or compound fluorescence and quenching.

UniProt O00255, sequence (O00255 whole entry, looked up): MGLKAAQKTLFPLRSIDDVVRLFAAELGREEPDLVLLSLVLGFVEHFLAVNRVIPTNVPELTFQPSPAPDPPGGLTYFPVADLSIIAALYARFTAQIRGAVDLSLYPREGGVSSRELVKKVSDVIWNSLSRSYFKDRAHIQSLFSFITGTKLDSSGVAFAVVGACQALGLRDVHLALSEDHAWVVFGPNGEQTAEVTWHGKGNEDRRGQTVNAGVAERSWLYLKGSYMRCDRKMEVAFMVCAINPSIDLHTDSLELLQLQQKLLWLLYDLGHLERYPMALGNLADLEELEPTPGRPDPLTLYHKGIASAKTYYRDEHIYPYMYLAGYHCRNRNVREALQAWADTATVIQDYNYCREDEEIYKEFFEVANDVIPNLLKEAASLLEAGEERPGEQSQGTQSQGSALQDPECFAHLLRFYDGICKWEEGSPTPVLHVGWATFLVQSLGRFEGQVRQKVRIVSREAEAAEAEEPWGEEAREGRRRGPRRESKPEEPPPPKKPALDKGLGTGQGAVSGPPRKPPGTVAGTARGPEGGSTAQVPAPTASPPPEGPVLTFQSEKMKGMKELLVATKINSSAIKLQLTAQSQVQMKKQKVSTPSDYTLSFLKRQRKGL

Structure (SMILES)	Potency	FP activity change, negative = inhibition
Cc1nn(-c2ccccc2)c(C)c1NC(=O)COc1ccc2ccccc2c1	inconclusive: 5.62 µM [inhibitor, single point]	
CCOc1nc(-c2ccncc2)nc2ccccc12	inconclusive: 35.5 µM [inhibitor, single point]	
Cc1cc(C)cc(NS(=O)(=O)c2ccc3[nH]cc(C(=O)NCc4ccco4)c(=O)c3c2)c1	inconclusive: 25.1 µM [quencher, side channel, partial curve]	
COc1ccc(NC(=O)CCCC(=O)O)cc1Cl		inactive: 1.07%
Cc1cccc(N(C(=O)c2ccco2)C(C(=O)NC2CCCC2)c2ccco2)c1C (centres undefined)	inconclusive: 5.62 µM [inhibitor, partial curve]	
Cc1ccc(NC(=O)NNC(=O)C2CC(c3cccnc3)=NO2)cc1 (centres undefined)	inconclusive: 44.7 µM [inhibitor, partial curve]	
O=C(Nc1cccc(C(F)(F)F)c1)c1cccnc1NCCc1ccccc1	inconclusive: 17.8 µM [quencher, side channel, partial curve]	
O=C(Nc1ccccc1)Nc1cccn(Cc2c(F)cccc2Cl)c1=O	inconclusive: 25.1 µM [quencher, side channel, partial curve]	
CCN(CC)CCCN(C(=O)c1ccco1)c1nc(-c2ccc(Cl)cc2)cs1		inactive: -16.9%
Cc1c(C)c2ccc(OC(C)C(=O)NCCCN3CCOCC3)c(C)c2oc1=O (centres undefined)		inactive: 15.7%
CCOC(=O)C1CCN(c2cc3c(cc2NC(=O)c2cc(OC)ccc2Br)n(C)c(=O)n3C)CC1	inconclusive: 25.1 µM [inhibitor, partial curve]	
Cc1nnc(C)c2c(C)n(-c3ccccc3)c(C)c12	inconclusive: 15.8 µM [fluorescent, side channel, partial curve]	
CCCCc1ccc(C2C(C#N)=C(N)SC(N)=C2C#N)s1	inconclusive: 22.4 µM [quencher, side channel, single point]	
COc1ccccc1N1CCN(Cc2cc(Br)c(O)c3ncccc23)CC1		inactive: 8.66%
COc1cc(OC)c2c(=O)c(OC)c(-c3ccc(OC)c(OC)c3)oc2c1	inconclusive: 20 µM [inhibitor, single point]	
COc1ccc(C(=O)N2C(=S)NC(=O)/C2=C\c2ccc(C)cc2)cc1	inconclusive: 14.1 µM [quencher, side channel, partial curve]	
COc1ccc(-c2nn(-c3ccccc3)cc2/C=N/NC(=O)c2ccc3c(c2)OCO3)cc1	inconclusive: 14.1 µM [inhibitor, partial curve]	
CN1C2CC(OC(=O)C(CO)c3ccccc3)C[C@@H]1[C@H]1OC21 (some centres undefined)		inactive: 3.95%
CCOc1ccc(S(=O)(=O)Nc2ccc3c(c2)OCO3)c2cccnc12	inconclusive: 39.8 µM [quencher, side channel, single point]	
Cc1ccsc1/C=N/NC(=O)c1nnn(-c2nonc2N)c1CN(C)c1ccccc1	inconclusive: 8.91 µM [quencher, side channel, full curve, poor fit]	

Structure (SMILES)	Potency	FP activity change, negative = inhibition
COc1cccc(NC(=O)CSc2ccc(-c3sc(C)nc3C)nn2)c1	inconclusive: 39.8 µM [fluorescent, single point]	
CCOC(=O)N1CCC(Nc2cc(C)nc3c(-c4ccccc4OC)c(C)nn23)CC1	inconclusive: 0.708 µM [inhibitor, full curve, poor fit]	
Cn1c(=O)n2n(c1=O)[C@H]1[C@H](O)[C@H]3O[C@@H]3/C(=N/OC[C@@H](O)COCc3ccco3)[C@@H]1CC2		inactive: 16.4% [at 11.7 µM]
Cc1ccc(C(=O)Cc2cc3ccccc3oc2=O)c(C)c1	inconclusive: 31.6 µM [fluorescent, side channel, single point]	
C=CCNC(=O)c1ccccc1NC(=O)C1CC(=O)N(C(C)C)C1 (centres undefined)		inactive: -11.2%
O=C(Cc1cccc2ccccc12)Nc1nc(-c2cccc([N+](=O)[O-])c2)cs1	inconclusive: 10 µM [quencher, side channel, partial curve]	
O=C(Cc1ccc(Br)cc1)Nc1cccc(Cl)c1	inconclusive: 25.1 µM [quencher, side channel, partial curve]	
O=C(Nc1ccc(F)cc1)c1ccc(CN2CCc3ccccc3C2)cc1	inconclusive: 5.01 µM [inhibitor, single point]	
O=S(=O)(Nc1ccc(N2CCOCC2)cc1)c1c(F)cc(F)cc1Br	inconclusive: 15.8 µM [quencher, side channel, partial curve]	
CCOc1ccc2nc(NC(=S)N(C)C)sc2c1	inconclusive: 12.6 µM [quencher, side channel, partial curve]	
N#CC1(c2ccccc2)CCN(S(=O)(=O)c2ccc(OC(F)(F)F)cc2)CC1	inconclusive: 28.2 µM [fluorescent, side channel, single point]	
CC(C)CN(Cc1c(O)ccc2c(=O)c(-c3ccccc3)coc12)CC(C)C		inactive: 16.6%
O=C(NCCc1ccccn1)c1cc2ccccc2o1	inconclusive: 35.5 µM [inhibitor, single point]	
COc1ccc(NC(=O)c2c(F)c(F)c(F)c(F)c2F)cc1Cl	inconclusive: 39.8 µM [fluorescent, side channel, single point]	
COc1ccccc1N1CCN(C(=O)c2cccc(N3C(=O)NC4CC3(C)Oc3ccccc34)c2)CC1 (centres undefined)	inconclusive: 14.1 µM [fluorescent, side channel, partial curve]	
Cc1cc2nc(CCN(Cc3cccnc3)C(=S)Nc3ccccc3)[nH]c2cc1C	inconclusive: 22.4 µM [quencher, side channel, single point]	
COc1ccc(C(=O)NC2CCCc3c2cnn3-c2cc(F)cc(F)c2)c(OC)c1OC (centres undefined)	inconclusive: 15.8 µM [fluorescent, side channel, partial curve]	
Cc1ccc(C)n1NC(=O)c1cccc(Cl)c1		inactive: -7.73%
CC(=O)Nc1ccc2c(c1)C(C)(C)C(C)N2C (centres undefined)	inconclusive: 20 µM [fluorescent, side channel, partial curve]	

From PubChem BioAssay AID1768 (National Center for Advancing Translational Sciences (NCATS), 2009)
